Test results as given in PubChem BioAssay AID588342 (National Center for Advancing Translational Sciences (NCATS), 2011).
Several values for one entry are separate records, joined by “and”; a condition that tells them apart may be missing. Identical values can stand only once. Hit rate of the full screen: of about 360,000 compounds, about 25,000 (6.9%) were called active. The shares of active, inactive and inconclusive entries below differ from those in the screen. Calls come from the whole dose curve; as a rule, active = well fitted inhibition curve with a large enough effect; inconclusive = small, poorly fitted or top-dose-only effect; inactive = flat fitted curve, though single readings scatter. Potencies of inconclusive entries are doubtful fits and often do not repeat.

What follows are compounds tested against Luciferin 4-monooxygenase (Photinus pyralis) (UniProt P08659) (assay: qHTS profiling assay for firefly luciferase inhibitor/activator using purifed enzyme and Km concentrations of substrates (counterscreen for miR-21 project)). Conditions: purified FLuc, luminescence inhibition; activity change, negative = inhibition: at 57.5 µM (top of the series).
Sequence of UniProt P08659 (P08659 whole entry, looked up): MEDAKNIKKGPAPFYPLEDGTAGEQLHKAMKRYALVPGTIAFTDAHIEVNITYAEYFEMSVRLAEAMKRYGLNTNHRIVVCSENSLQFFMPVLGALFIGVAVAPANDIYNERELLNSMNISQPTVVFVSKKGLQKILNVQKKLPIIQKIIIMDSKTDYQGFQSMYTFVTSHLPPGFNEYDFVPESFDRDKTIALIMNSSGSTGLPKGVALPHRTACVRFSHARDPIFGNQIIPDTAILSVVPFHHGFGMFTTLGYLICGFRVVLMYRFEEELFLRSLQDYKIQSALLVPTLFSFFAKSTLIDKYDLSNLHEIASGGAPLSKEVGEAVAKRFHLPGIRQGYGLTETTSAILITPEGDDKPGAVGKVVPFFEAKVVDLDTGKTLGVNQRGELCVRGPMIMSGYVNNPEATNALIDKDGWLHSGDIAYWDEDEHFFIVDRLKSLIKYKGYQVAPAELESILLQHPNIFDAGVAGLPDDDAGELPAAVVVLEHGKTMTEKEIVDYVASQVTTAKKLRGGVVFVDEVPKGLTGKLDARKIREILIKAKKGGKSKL
Method in brief: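 Purified P. pyralis luciferase, 10 nM final, with Km-level 10 uM D-luciferin and 10 uM ATP in 50 mM Tris acetate pH 7.5, 10 mM Mg acetate, 0.01% Tween-20, 0.05% BSA; 6-point qHTS titration about 60 µM downward; luminescence read.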
Note: nearly all actives have a fitted effect of over 55% in size.
Potency is the fitted concentration of half-maximal effect; tags give direction and shape of the fitted curve.
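Throughout, for activity change, negative = inhibition: plate controls were vehicle for no effect and reference inhibitor for full effect.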

SMILES | Potency | activity change, negative = inhibition
CCCc1cnc(N2CCN(C(=S)NC)CC2)nc1 | active: 16.9 µM | –
FC(F)(F)c1ccccc1-n1c(-c2ccco2)n[nH]c1=S | inconclusive: 19 µM [inhibitor, partial curve] | –
CCOc1ccc(C(=O)NN2C(=O)C3C4C=CC(O4)C3C2=O)cc1 (stereo not given) | inconclusive: 37.9 µM [inhibitor, partial curve, poor fit] | –
CCOc1ccc(N(CC(=O)Nc2cccc(OC)c2)S(C)(=O)=O)cc1 | inconclusive: 19 µM [inhibitor, partial curve, poor fit] | –
CSc1ccc(/C=C(\C#N)C(=O)Nc2cccc(C)c2)cc1 | inconclusive: 0.536 µM [inhibitor, full curve] | –
O=C(O)c1cccc(S(=O)(=O)Nc2cccc(S(=O)(=O)N3CCCCCC3)c2)c1 | inconclusive: 12 µM [inhibitor, partial curve] | –
C#CCn1cc(Cl)cc(C(=O)Nc2ccccc2)c1=O | inconclusive: 19 µM [inhibitor, partial curve] | –
CCc1nnc(NC(=O)CSc2nccn2Cc2ccc(Cl)cc2)s1 | inconclusive: 26.9 µM [inhibitor, partial curve, poor fit] | –
Cc1c(C#N)c(O)n(C)c(=O)c1N=Nc1ccc(S(N)(=O)=O)cc1 | inconclusive: 37.9 µM [inhibitor, partial curve, poor fit] | –
Cc1ccc(O)c(-c2cc(C(=O)Nc3cccnc3)[nH]n2)c1 | active: 5.36 µM | –
Cc1cccc(NC(=O)CN2C(=O)N/C(=C\c3cccn3-c3cccc(C(=O)O)c3)C2=O)c1 | inconclusive: 26.9 µM [inhibitor, partial curve, poor fit] | –
COc1ccc(-c2csc(Nc3ccc(S(=O)(=O)Nc4cc(C)on4)cc3)n2)cc1C | inconclusive: 30.1 µM [inhibitor, single point] | –
CC(=O)NCCC(=O)Nc1cc(S(=O)(=O)N2CCCCC2)ccc1N1CCN(C)CC1 | – | inactive: 0.535%
CS(=O)(=O)C1=NSC2=NC(=O)/C(=C\c3ccc(OC(=O)c4ccco4)cc3)C(=N)N21 | active: 23.9 µM | –
S=C(NCc1cccs1)Nc1ccc(Br)cc1Cl | inconclusive: 30.1 µM [inhibitor, single point] | –
Cc1cc(C)n(-c2nc(-n3nc(C)cc3C)c3c4c(sc3n2)COC(C)(C)C4)n1 | inconclusive: 15.1 µM [inhibitor, partial curve, poor fit] | –
CC(=O)Nc1cccc(C(=O)OCC(=O)NCc2cc(C)c(O)c(C)c2)c1 | active: 15.1 µM | –
O=S(=O)(c1cccc(-c2nc3n(n2)Cc2ccccc2-3)c1)N1CCCCC1 | inconclusive: 10.7 µM [inhibitor, partial curve] | –
CCc1ccc(NC(=O)c2cnn3ccccc23)cc1 | active: 0.338 µM | –
CC(=O)Nc1ccc(NC(=O)C(NS(=O)(=O)c2ccc3c(c2)OCCO3)C(C)C)cc1 (stereo not given) | – | inactive: 2.54%
O=C(O)c1ccc(Cl)c(NC(=S)NC(=O)c2cccc(COc3ccccc3)c2)c1 | inconclusive: 37.9 µM [inhibitor, partial curve, poor fit] | –
CCCCC(=O)OC1=CN(Cc2ccccc2)S(=O)(=O)c2ccccc21 | – | inactive: 5.5%
COc1ccc2c(c1)c(CC(=O)Nc1c(C)cccc1C)c(C)n2C(=O)c1ccc(Cl)cc1 | – | inactive: 0.303%
CN(C)c1ccnc2sc3c(=O)n(-c4ccccc4)cnc3c12 | – | inactive: -0.132%

SMILES | Potency | activity change, negative = inhibition
CN1CCC(N(CCc2ccccc2)C(=O)CCC(=O)O)CC1 | – | inactive: -2.95%
COc1ccc(NC(=O)CCn2c(=S)[nH]c3ccccc3c2=O)cc1OC | inconclusive: 2.69 µM [inhibitor, partial curve, poor fit] | –
CC(NC(=O)COc1ccc(-c2ccccc2)cc1)C1CCCO1 (stereo not given) | inconclusive: 23.9 µM [inhibitor, partial curve, poor fit] | –
CCOC(=O)COc1ccc2c(c1)C(=O)CC1(CCCCC1)O2 | inconclusive: 30.1 µM [inhibitor, single point] | –
O=C(NNC(=O)c1nn(-c2ccc(F)cc2)ccc1=O)c1ccc(C(F)(F)F)cc1 | inconclusive: 23.9 µM [inhibitor, partial curve, poor fit] | –
COc1ccccc1C(=O)NNC(=O)c1cccc(F)c1 | active: 15.1 µM | –
CCOc1ccc(OCc2ccc(C(=O)N3CCCC3)o2)cc1 | inconclusive: 30.1 µM [inhibitor, partial curve, poor fit] | –
CN(Cc1c(F)cccc1Cl)C(=O)CNC(=O)c1sc2ccccc2c1Cl | inconclusive: 6.01 µM [inhibitor, partial curve, poor fit] | –
CCOc1ccccc1NC(=O)Cn1c(=O)n(-c2ccc(C)cc2)c(=O)c2c1cnn2C | – | inactive: -1.64%
COC(=O)c1ccc(NC(=O)CC2C(=O)N(c3ccccc3)C(=O)N2Cc2cccs2)cc1 (stereo not given) | inconclusive: 37.9 µM [inhibitor, single point] | –
COc1ccc(CNC(=O)Cn2cccc2C(=O)c2ccccc2C)cc1 | inconclusive: 26.9 µM [inhibitor, partial curve] and inconclusive: 21.3 µM [inhibitor, partial curve] | –
N#Cc1nc(-c2ccccc2F)oc1NC1CCCCC1 | inconclusive: 30.1 µM [inhibitor, single point] | –
O=C(O)c1cccc(NC(=O)c2ccc3c(c2)C(=O)N(c2cccc([N+](=O)[O-])c2)C3=O)c1 | active: 3.79 µM | –
Cc1cccc(NC(=O)c2ccc(Cl)nc2)n1 | – | inactive: -7.7%
COc1ccc(/C=c2\s/c(=C\C(=O)C(C)(C)C)[nH]c2=O)cc1O | active: 23.9 µM | –
Cc1cccc(NC(=O)c2c(NC(=O)c3ccccc3)sc3c2CCC3)c1 | inconclusive: 7.57 µM [inhibitor, full curve] | –
O=C(CSCC(=O)NC1CC1)Nc1ccccc1 | – | inactive: 12.7%
COc1ccc(C2CC(C(F)(F)F)n3ncc(C(=O)Nc4cccc(O)c4)c3N2)cc1OC (stereo not given) | – | inactive: -5.46%
CC(C)(C)c1cc2nc(N)nc(N)n2n1 | – | inactive: -17.8%
O=C1CCCC2=C1C(c1cccc(O)c1)C1=C(N2)c2ccccc2C1=O (stereo not given) | inconclusive: 26.9 µM [inhibitor, partial curve, poor fit] | –
C=CCc1ccccc1OCCSc1nc(-c2ccccc2F)nc2cc(=O)[nH]n12 | inconclusive: 13.5 µM [inhibitor, partial curve, poor fit] | –
Cc1ccc(-c2nc(N)s[n+]2-c2ccccc2)cc1 | inconclusive: 23.9 µM [inhibitor, partial curve, poor fit] | –
Cc1nn(CCC(=O)Nc2cccc(C#N)c2)c(C)c1S(=O)(=O)N1CCCCC1 | inactive | –
COc1ccc(-c2nc3ccccc3c(=O)[nH]2)cc1 | active: 3.38 µM | –

SMILES | Potency | activity change, negative = inhibition
COC(=O)c1cc(Nc2cc(C)c3c(O)cccc3n2)cc(C(=O)OC)c1 | inconclusive: 8.49 µM [inhibitor, partial curve, poor fit] | –
CC(C)(C)OC(=O)NC(CCCCNC=O)C(=O)O (stereo not given) | inconclusive: 23.9 µM [inhibitor, single point] | –
CCc1cnc2c(c1SCc1cc(OC)cc(OC)c1)c(=O)n(C)c(=O)n2C | – | inactive: 4.82%
Cc1ccc(C(=O)COC(=O)c2cc(=O)[nH]c3ccccc23)cc1C | active: 1.07 µM | –
CC(=O)c1ccc(-c2ccc(C(=O)NCC3CCCO3)o2)cc1 (stereo not given) | inconclusive: 37.9 µM [inhibitor, partial curve, poor fit] | –
COc1ccc(C(=O)Nc2ccc(C(=O)N3CCOCC3)cc2)cc1OC | inconclusive: 37.9 µM [inhibitor, partial curve, poor fit] | –
COc1ccc(/C=N/NC2=NCCCCC2)cc1 | inconclusive: 26.9 µM [inhibitor, partial curve, poor fit] | –
O=c1[nH]c(C2CCCN(S(=O)(=O)c3ccccc3)C2)nc2c1nnn2Cc1ccccc1Br (stereo not given) | inactive | –
CCCCN(c1ccccc1)S(=O)(=O)c1cccc(C(=O)O)c1 | inconclusive: 23.9 µM [inhibitor, single point] | –
Cc1nn(C)cc1S(=O)(=O)N1CCN(Cc2ccc(F)cc2Cl)CC1 | – | inactive: 0.84%
Cc1cc(C(=O)N/N=C/c2cc(Cl)cc([N+](=O)[O-])c2O)n[nH]1 | active: 26.9 µM | –
CSCCC(NC(=O)c1ccc(C(C)(C)C)cc1)C(=O)O (stereo not given) | inconclusive: 23.9 µM [inhibitor, single point] | –
CCOc1ccc(N(CC(=O)NN=C2CCCC2)S(C)(=O)=O)cc1 | – | inactive: -0.719%
Cn1c(=O)c2[nH]c(N=NNc3ccccc3F)nc2n(C)c1=O | inconclusive: 37.9 µM [inhibitor, single point] | –
COc1ccc(NC(=O)N2CCCC(C(=O)Nc3ccccc3OC)C2)cc1 (stereo not given) | – | inactive: 0.703%
CSCC[C@H](NC(=O)[C@@H]1Cc2ccccc2CN1)C(=O)Nc1ccc2c(c1)OCCO2 | active: 15.1 µM | –
Clc1ccc(-c2nnc(C3CC3)o2)cc1 | inconclusive: 37.9 µM [inhibitor, partial curve, poor fit] | –
O=C(CNC(=O)c1ccccc1)NCCc1ccc(O)c(O)c1 | inconclusive: 13.5 µM [inhibitor, partial curve, poor fit] | –
CC1(C)CC(NC(=O)c2ccccc2F)CC(C)(C)N1 | – | inactive: 5.09%
Cc1c(NC(=O)c2cccs2)cccc1-c1nc2cc(Cl)ccc2o1 | active: 5.36 µM | –
Clc1ccccc1-c1nn2c(-c3ccccn3)nnc2s1 | inconclusive: 37.9 µM [inhibitor, partial curve, poor fit] | –
O=C(NCCc1ccccc1)Nc1ccc2c(c1)OCO2 | active: 10.7 µM | –
